Measurements taken from patent publication US20040002425A1, “Triketone derivatives and herbicides” (Idemitsu Kosan Co., Ltd., priority 1998, published 2004).
The name of at least one read-out is uncertain.

Key:
Echinochloa crug-galli [1] = assay: Biological Test 1 (soaking in water/treatment on the 3rd day after transplantation): weed-killing effect on barnyard grass; assay type: in vivo, Echinochloa crus-galli; conditions: Treatment performed 3 days after transplantation, examined on the 30th day after treatment
Scirups juncoides [2] = assay: Biological Test 1 (soaking in water/treatment on the 3rd day after transplantation): weed-killing effect on Scirups juncoides; assay type: in vivo, Scirpus juncoides; conditions: Treatment performed 3 days after transplantation, examined on the 30th day after treatment
Echinochloa crug-galli [3] = assay: Biological Test 2 (soaking in water/treatment on the 10th day after transplantation): weed-killing effect on barnyard grass; assay type: in vivo, Echinochloa crus-galli; conditions: Treatment performed 10 days after transplantation, examined on the 30th day after treatment
Scirups juncoides [4] = assay: Biological Test 2 (soaking in water/treatment on the 10th day after transplantation): weed-killing effect on Scirups juncoides; assay type: in vivo, Scirpus juncoides; conditions: Treatment performed 10 days after transplantation, examined on the 30th day after treatment

| Compound | Weed-killing effect, Echinochloa crug-galli (Echinochloa crug-galli [1]; dose 100 g/ha) | Weed-killing effect, Echinochloa crug-galli (Echinochloa crug-galli [1]; dose 200 g/ha) | Weed-killing effect, Scirups juncoides (Scirups juncoides [2]; dose 100 g/ha) | Weed-killing effect, Scirups juncoides (Scirups juncoides [2]; dose 200 g/ha) | Weed-killing effect, Echinochloa crug-galli (Echinochloa crug-galli [3]; dose 100 g/ha) | Weed-killing effect, Echinochloa crug-galli (Echinochloa crug-galli [3]; dose 200 g/ha) | Weed-killing effect, Scirups juncoides (Scirups juncoides [4]; dose 100 g/ha) | Weed-killing effect, Scirups juncoides (Scirups juncoides [4]; dose 200 g/ha) |
| --- | --- | --- | --- | --- | --- | --- | --- | --- |
| O=C1CCCC(O)=C1C(=O)c1ccc2c(c1Cl)CCS2(=O)=O [A-1, 4-chloro-5-(1,3-dioxocyclohexan-2-yl)carbonyl-2,3-dihydrobenzothiophene-1,1-dioxide] | 5 (90% or more (almost completely withered)) | 5 (90% or more (almost completely withered)) | 5 (90% or more (almost completely withered)) | 5 (90% or more (almost completely withered)) | 5 (90% or more (almost completely withered)) | 5 (90% or more (almost completely withered)) | 5 (90% or more (almost completely withered)) | 5 (90% or more (almost completely withered)) |
| Cc1c(C(=O)C2=C(O)CCCC2=O)ccc2c1CCS2(=O)=O [A-2, 4-methyl-5-(1,3-dioxocyclohexan-2-yl)carbonyl-2,3-dihydrobenzothiophene-1,1-dioxide] | 4 (70% or more and less than 90%) | 5 (90% or more (almost completely withered)) | 5 (90% or more (almost completely withered)) | 5 (90% or more (almost completely withered)) | 3 (40% or more and less than 70%) | 4 (70% or more and less than 90%) | 5 (90% or more (almost completely withered)) | 5 (90% or more (almost completely withered)) |
| Cc1cc(C(=O)C2=C(O)CCCC2=O)c(Cl)c2c1S(=O)(=O)CC2 [A-3, 4-chloro-7-methyl-5-(1,3-dioxocyclohexan-2-yl) carbonyl-2,3-dihydrobenzothiophene-1,1-dioxide] | 5 (90% or more (almost completely withered)) | 5 (90% or more (almost completely withered)) | 5 (90% or more (almost completely withered)) | 5 (90% or more (almost completely withered)) | 5 (90% or more (almost completely withered)) | 5 (90% or more (almost completely withered)) | 5 (90% or more (almost completely withered)) | 5 (90% or more (almost completely withered)) |
| Cc1cc(C(=O)C2=C(O)CCCC2=O)c(C)c2c1S(=O)(=O)CC2 [A-4, 4,7-dimethyl-5-(1,3-dioxocyclohexan-2-yl)carbonyl-2,3-dihydrobenzothiophene-1,1-dioxide] | 4 (70% or more and less than 90%) | 5 (90% or more (almost completely withered)) | 5 (90% or more (almost completely withered)) | 5 (90% or more (almost completely withered)) | 4 (70% or more and less than 90%) | 4 (70% or more and less than 90%) | 5 (90% or more (almost completely withered)) | 5 (90% or more (almost completely withered)) |
| COc1c(C(=O)C2=C(O)CCCC2=O)ccc2c1CCS2(=O)=O [A-5, 4-methoxy-5-(1,3-dioxocyclohexan-2-yl)carbonyl-2,3-dihydrobenzothiophene-1,1-dioxide] | 3 (40% or more and less than 70%) | 5 (90% or more (almost completely withered)) | 4 (70% or more and less than 90%) | 5 (90% or more (almost completely withered)) | 3 (40% or more and less than 70%) | 4 (70% or more and less than 90%) | 4 (70% or more and less than 90%) | 4 (70% or more and less than 90%) |
| CC1CCC(O)=C(C(=O)c2ccc3c(c2Cl)CCS3(=O)=O)C1=O (stereo not shown) [A-7, 4-chloro-5-(4-methyl-1,3-dioxocyclohexan-2-yl)carbonyl-2,3-dihydrobenzothiophene-1,1-dioxide] | 5 (90% or more (almost completely withered)) | 5 (90% or more (almost completely withered)) | 5 (90% or more (almost completely withered)) | 5 (90% or more (almost completely withered)) | 4 (70% or more and less than 90%) | 5 (90% or more (almost completely withered)) | 5 (90% or more (almost completely withered)) | 5 (90% or more (almost completely withered)) |
| CC1(C)CCC(O)=C(C(=O)c2ccc3c(c2Cl)CCS3(=O)=O)C1=O [A-8, 4-chloro-5-(4,4-dimethyl-1,3-dioxocyclohexan-2-yl)carbonyl-2,3-dihydrobenzothiophene-1,1-dioxide] | 5 (90% or more (almost completely withered)) | 5 (90% or more (almost completely withered)) | 5 (90% or more (almost completely withered)) | 5 (90% or more (almost completely withered)) | 5 (90% or more (almost completely withered)) | 5 (90% or more (almost completely withered)) | 5 (90% or more (almost completely withered)) | 5 (90% or more (almost completely withered)) |
| CC1(C)CC(=O)C(C(=O)c2ccc3c(c2Cl)CCS3(=O)=O)=C(O)C1 [A-9, 4-chloro-5-(5,5-dimethyl-1,3-dioxocyclohexan-2-yl)carbonyl-2,3-dihydrobenzothiophene-1,1-dioxide] | 5 (90% or more (almost completely withered)) | 5 (90% or more (almost completely withered)) | 5 (90% or more (almost completely withered)) | 5 (90% or more (almost completely withered)) | 5 (90% or more (almost completely withered)) | 5 (90% or more (almost completely withered)) | 5 (90% or more (almost completely withered)) | 5 (90% or more (almost completely withered)) |
| Cc1cc(C(=O)C2=C(O)CC(C)(C)CC2=O)c(Cl)c2c1S(=O)(=O)CC2 [A-10, 4-chloro-7-methyl-5-(5,5-dimethyl-1,3-dioxocyclohexan-2-yl)carbonyl-2,3-dihydrobenzothiophene-1,1-dioxide] | 5 (90% or more (almost completely withered)) | 5 (90% or more (almost completely withered)) | 5 (90% or more (almost completely withered)) | 5 (90% or more (almost completely withered)) | 5 (90% or more (almost completely withered)) | 5 (90% or more (almost completely withered)) | 5 (90% or more (almost completely withered)) | 5 (90% or more (almost completely withered)) |
| Cc1cc(C(=O)C2=C(O)CCC(C)(C)C2=O)c(Cl)c2c1S(=O)(=O)CC2 [A-11, 4-chloro-7-methyl-5-(4,4-dimethyl-1,3-dioxocyclohexan-2-yl)carbonyl-2,3-dihydrobenzothiophene-1,1-dioxide] | 5 (90% or more (almost completely withered)) | 5 (90% or more (almost completely withered)) | 5 (90% or more (almost completely withered)) | 5 (90% or more (almost completely withered)) | 5 (90% or more (almost completely withered)) | 5 (90% or more (almost completely withered)) | 5 (90% or more (almost completely withered)) | 5 (90% or more (almost completely withered)) |
| CC1CC(=O)C(C(=O)c2ccc3c(c2Cl)CCS3(=O)=O)=C(O)C1 (stereo not shown) [A-12, 4-chloro-5-(5-methyl-1,3-dioxocyclohexan-2-yl)carbonyl-2,3-dihydrobenzothiophene-1,1-dioxide] | 5 (90% or more (almost completely withered)) | 5 (90% or more (almost completely withered)) | 5 (90% or more (almost completely withered)) | 5 (90% or more (almost completely withered)) | 5 (90% or more (almost completely withered)) | 5 (90% or more (almost completely withered)) | 5 (90% or more (almost completely withered)) | 5 (90% or more (almost completely withered)) |
